Results: publication PMC8041803
Results are given in words; binding and its absence hold for the method and conditions named. Binding seen in cells or lysates may run through a third protein. Some binding calls cover weakened binding; strength is not graded here. For some assays here: Sequences can lack the tags named with a protein.

The chains behind the UniProt entries cited, without tags or fusion partners.
UniProt Q13426: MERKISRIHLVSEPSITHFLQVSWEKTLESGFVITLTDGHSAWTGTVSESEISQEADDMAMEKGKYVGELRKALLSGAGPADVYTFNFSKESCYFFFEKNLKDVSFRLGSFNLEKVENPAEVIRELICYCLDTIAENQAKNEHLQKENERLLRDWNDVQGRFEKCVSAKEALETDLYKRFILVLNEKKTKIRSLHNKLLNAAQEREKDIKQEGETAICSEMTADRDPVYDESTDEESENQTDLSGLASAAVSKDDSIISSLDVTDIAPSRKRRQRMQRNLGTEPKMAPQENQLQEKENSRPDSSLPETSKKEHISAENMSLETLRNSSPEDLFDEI
UniProt Q9H9Q4: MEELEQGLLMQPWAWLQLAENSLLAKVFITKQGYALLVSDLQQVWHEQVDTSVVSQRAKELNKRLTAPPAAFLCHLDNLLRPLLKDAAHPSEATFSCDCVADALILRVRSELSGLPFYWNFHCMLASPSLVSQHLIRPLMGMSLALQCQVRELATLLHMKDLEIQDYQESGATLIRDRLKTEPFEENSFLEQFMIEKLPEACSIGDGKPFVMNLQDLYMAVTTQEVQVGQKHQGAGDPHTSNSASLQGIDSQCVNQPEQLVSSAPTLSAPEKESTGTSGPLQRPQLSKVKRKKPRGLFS
UniProt P78527: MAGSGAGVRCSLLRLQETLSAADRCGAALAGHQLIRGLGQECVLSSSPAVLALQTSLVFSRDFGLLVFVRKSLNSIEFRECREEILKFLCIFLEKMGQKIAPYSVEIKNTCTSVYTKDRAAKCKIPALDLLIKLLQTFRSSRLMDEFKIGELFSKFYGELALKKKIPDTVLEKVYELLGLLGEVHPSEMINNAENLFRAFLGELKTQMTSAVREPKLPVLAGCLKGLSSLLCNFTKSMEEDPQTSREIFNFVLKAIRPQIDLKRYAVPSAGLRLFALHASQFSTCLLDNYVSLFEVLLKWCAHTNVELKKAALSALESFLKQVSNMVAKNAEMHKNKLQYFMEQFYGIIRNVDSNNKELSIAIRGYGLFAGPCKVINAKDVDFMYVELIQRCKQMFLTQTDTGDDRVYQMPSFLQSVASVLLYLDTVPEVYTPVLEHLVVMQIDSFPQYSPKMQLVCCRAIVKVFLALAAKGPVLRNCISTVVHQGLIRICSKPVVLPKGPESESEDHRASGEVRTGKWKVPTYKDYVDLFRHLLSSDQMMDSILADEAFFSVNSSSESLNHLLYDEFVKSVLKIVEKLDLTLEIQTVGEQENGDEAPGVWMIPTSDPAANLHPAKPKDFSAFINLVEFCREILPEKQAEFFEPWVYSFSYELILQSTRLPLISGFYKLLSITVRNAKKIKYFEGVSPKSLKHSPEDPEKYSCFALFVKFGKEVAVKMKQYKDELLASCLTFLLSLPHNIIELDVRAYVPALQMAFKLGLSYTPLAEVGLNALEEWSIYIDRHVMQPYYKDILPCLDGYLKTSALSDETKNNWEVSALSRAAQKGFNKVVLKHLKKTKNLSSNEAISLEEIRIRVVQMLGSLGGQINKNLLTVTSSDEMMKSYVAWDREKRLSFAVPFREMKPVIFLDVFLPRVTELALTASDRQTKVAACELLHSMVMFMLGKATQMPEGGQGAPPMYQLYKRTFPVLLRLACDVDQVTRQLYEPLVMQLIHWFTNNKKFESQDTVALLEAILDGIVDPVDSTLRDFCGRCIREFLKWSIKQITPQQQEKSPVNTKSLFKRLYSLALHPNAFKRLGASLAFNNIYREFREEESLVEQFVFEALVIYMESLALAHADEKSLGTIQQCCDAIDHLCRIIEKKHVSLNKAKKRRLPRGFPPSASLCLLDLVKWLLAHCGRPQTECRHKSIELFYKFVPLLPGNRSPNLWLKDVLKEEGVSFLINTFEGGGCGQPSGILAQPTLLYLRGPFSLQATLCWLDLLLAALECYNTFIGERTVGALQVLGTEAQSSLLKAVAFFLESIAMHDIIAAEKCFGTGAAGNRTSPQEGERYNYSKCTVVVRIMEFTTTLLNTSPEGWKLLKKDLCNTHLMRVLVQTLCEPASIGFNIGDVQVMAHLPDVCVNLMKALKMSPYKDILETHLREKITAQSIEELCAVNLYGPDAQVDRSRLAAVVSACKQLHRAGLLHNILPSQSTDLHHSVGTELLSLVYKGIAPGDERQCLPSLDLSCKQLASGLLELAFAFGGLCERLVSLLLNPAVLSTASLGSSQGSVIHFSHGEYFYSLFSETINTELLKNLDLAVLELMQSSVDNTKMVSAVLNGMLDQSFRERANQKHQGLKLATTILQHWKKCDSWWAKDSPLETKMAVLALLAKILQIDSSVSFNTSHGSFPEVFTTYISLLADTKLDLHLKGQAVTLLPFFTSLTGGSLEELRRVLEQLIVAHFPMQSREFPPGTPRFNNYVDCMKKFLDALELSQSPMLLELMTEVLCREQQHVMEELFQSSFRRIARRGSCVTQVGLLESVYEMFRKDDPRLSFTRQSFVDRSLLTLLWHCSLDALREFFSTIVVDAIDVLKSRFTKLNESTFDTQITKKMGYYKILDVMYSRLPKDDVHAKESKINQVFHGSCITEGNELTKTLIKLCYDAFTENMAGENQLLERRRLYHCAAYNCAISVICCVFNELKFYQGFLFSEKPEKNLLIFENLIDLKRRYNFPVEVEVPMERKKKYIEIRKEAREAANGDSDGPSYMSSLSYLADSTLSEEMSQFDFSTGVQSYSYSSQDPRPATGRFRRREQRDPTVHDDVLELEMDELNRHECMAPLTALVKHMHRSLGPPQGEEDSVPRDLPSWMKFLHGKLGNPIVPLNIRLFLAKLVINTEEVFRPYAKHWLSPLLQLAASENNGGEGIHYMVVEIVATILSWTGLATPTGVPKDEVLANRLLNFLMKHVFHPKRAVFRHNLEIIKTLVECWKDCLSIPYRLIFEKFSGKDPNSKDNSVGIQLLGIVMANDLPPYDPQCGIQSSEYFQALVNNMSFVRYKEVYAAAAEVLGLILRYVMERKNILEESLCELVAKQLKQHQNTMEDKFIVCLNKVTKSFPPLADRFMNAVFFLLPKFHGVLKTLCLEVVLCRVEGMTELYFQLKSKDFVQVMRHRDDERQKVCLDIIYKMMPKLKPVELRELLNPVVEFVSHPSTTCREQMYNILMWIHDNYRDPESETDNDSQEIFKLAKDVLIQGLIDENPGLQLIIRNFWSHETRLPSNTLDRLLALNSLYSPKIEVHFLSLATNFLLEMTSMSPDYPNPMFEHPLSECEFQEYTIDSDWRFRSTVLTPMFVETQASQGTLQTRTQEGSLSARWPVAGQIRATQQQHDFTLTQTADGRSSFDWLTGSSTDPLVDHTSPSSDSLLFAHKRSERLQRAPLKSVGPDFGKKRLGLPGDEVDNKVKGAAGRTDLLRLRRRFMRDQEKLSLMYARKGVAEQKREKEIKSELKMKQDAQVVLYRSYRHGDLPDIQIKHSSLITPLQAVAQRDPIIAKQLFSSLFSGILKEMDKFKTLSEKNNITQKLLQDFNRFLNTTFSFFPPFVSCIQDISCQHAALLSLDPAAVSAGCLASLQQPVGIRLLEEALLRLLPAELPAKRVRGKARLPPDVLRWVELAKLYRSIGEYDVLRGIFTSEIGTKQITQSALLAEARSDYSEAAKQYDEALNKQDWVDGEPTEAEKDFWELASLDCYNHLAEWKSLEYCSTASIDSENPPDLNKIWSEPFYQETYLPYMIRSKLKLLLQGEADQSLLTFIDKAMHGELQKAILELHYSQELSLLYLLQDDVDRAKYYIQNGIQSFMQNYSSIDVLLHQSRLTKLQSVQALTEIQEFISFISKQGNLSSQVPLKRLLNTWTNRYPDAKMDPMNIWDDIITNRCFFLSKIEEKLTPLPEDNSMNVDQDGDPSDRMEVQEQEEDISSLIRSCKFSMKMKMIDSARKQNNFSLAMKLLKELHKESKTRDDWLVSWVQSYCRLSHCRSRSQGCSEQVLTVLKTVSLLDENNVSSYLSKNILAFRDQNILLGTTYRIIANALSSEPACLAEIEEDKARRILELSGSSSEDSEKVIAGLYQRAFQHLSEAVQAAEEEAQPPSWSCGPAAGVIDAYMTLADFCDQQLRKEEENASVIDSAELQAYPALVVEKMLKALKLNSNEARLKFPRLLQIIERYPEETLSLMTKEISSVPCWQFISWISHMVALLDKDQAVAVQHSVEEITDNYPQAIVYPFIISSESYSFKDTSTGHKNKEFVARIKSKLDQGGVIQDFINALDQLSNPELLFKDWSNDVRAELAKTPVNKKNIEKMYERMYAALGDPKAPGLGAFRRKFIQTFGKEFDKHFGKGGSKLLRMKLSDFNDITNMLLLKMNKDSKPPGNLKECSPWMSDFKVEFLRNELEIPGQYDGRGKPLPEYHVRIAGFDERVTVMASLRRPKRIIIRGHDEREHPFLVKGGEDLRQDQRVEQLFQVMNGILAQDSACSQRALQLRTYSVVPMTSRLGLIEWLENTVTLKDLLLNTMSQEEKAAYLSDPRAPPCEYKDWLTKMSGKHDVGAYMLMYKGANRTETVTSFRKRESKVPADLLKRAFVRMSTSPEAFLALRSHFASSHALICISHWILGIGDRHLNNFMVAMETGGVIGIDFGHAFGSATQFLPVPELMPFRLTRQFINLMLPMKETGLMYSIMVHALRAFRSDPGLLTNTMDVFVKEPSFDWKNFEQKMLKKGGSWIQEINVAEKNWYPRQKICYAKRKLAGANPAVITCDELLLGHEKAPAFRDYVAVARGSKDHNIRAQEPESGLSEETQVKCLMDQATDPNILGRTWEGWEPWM

Columns and labels:
[1] = target: T1, Flag-RIG-I (retinoic acid-inducible gene I, wild type) (UniProt O95786); assay: co-IP; HEK293T transfected with empty vector or Flag-RIG-I; lysate (NETN buffer) precipitated with anti-Flag agarose beads; endogenous partners blotted
T1 sequence: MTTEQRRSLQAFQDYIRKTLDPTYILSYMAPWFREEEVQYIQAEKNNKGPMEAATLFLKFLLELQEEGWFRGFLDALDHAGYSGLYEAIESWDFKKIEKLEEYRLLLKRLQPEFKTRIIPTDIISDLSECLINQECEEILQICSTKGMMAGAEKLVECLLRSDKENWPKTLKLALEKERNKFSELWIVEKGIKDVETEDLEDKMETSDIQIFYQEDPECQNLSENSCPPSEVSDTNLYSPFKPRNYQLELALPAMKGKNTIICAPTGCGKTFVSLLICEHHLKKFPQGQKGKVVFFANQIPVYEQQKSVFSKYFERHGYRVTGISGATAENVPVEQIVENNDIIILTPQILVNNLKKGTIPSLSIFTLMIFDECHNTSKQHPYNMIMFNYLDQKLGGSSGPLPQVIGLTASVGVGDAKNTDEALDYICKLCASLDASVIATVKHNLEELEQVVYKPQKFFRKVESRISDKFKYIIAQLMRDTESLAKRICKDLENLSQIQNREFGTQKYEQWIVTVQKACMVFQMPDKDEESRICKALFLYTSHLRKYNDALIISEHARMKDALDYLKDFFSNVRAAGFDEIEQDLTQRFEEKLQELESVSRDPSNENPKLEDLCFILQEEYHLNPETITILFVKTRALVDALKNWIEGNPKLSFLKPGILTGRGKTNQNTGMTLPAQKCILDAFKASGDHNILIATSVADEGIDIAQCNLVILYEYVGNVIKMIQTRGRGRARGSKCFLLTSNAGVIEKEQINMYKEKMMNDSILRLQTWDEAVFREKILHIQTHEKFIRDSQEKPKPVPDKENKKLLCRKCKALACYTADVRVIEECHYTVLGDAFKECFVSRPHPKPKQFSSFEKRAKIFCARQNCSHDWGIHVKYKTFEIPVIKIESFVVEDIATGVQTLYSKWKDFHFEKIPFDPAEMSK

[2] = target: T1, Flag-RIG-I (retinoic acid-inducible gene I, wild type); assay: co-IP; HEK293T transfected with Flag-RIG-I constructs and GFP-XRCC4; lysates incubated with anti-Flag agarose beads; blot
[3] = target: T1, Flag-RIG-I (retinoic acid-inducible gene I, wild type); assay: co-IP; legend not shown (Supplementary Fig. 2b, c); RIG-I wild type or RNA binding-deficient mutants, cells with or without IR
[4] = target: T2, RIG-I (endogenous) (human (endogenous in A549)) (UniProt O95786); assay: co-IP
T2 sequence: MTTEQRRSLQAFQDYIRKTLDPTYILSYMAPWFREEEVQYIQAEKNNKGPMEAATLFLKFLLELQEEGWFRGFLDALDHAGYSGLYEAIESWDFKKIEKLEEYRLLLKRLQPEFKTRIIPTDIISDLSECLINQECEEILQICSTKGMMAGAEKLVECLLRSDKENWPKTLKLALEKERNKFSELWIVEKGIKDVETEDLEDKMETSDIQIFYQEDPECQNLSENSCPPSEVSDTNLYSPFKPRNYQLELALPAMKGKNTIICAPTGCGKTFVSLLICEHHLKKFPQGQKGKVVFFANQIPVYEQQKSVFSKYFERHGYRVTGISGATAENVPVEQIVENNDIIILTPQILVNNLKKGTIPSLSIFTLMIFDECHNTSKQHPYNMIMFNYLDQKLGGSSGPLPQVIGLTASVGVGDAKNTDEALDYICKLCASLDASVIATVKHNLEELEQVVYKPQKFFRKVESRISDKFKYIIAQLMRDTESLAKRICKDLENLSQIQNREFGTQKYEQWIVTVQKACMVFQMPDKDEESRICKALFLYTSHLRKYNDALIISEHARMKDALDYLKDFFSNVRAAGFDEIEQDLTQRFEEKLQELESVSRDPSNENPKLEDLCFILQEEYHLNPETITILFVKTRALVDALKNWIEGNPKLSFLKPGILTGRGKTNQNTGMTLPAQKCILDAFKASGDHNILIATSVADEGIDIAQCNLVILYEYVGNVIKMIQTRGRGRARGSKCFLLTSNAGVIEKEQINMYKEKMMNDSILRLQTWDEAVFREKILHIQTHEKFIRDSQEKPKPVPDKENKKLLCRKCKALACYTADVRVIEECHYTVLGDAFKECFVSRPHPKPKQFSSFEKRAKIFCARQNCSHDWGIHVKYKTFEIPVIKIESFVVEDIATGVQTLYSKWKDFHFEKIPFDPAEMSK

GFP-XRCC4 (wild type) = GFP-XRCC4 (wild type) (UniProt Q13426); assay: co-IP; HEK293T transfected with GFP-XRCC4 constructs and Flag-RIG-I; lysates incubated with anti-GFP agarose beads; blot
Flag-XRCC4 = Flag-XRCC4 (UniProt Q13426); assay: co-IP

XLF (from UniProt Q9H9Q4 1-299)
binding [1]: no binding

DNA-PK (from UniProt P78527 1-4128)
binding [1]: no binding

GFP-XRCC4 (wild type) (from UniProt Q13426 1-336)
binding [2]: binds

XRCC4 (endogenous) (from UniProt Q13426 1-336)
binding [3]: binds | binding [1]: binds | binding [4]: binds

B1: Flag-RIG-I (retinoic acid-inducible gene I, wild type) (protein, UniProt O95786 1-925)
chain: MTTEQRRSLQAFQDYIRKTLDPTYILSYMAPWFREEEVQYIQAEKNNKGPMEAATLFLKFLLELQEEGWFRGFLDALDHAGYSGLYEAIESWDFKKIEKLEEYRLLLKRLQPEFKTRIIPTDIISDLSECLINQECEEILQICSTKGMMAGAEKLVECLLRSDKENWPKTLKLALEKERNKFSELWIVEKGIKDVETEDLEDKMETSDIQIFYQEDPECQNLSENSCPPSEVSDTNLYSPFKPRNYQLELALPAMKGKNTIICAPTGCGKTFVSLLICEHHLKKFPQGQKGKVVFFANQIPVYEQQKSVFSKYFERHGYRVTGISGATAENVPVEQIVENNDIIILTPQILVNNLKKGTIPSLSIFTLMIFDECHNTSKQHPYNMIMFNYLDQKLGGSSGPLPQVIGLTASVGVGDAKNTDEALDYICKLCASLDASVIATVKHNLEELEQVVYKPQKFFRKVESRISDKFKYIIAQLMRDTESLAKRICKDLENLSQIQNREFGTQKYEQWIVTVQKACMVFQMPDKDEESRICKALFLYTSHLRKYNDALIISEHARMKDALDYLKDFFSNVRAAGFDEIEQDLTQRFEEKLQELESVSRDPSNENPKLEDLCFILQEEYHLNPETITILFVKTRALVDALKNWIEGNPKLSFLKPGILTGRGKTNQNTGMTLPAQKCILDAFKASGDHNILIATSVADEGIDIAQCNLVILYEYVGNVIKMIQTRGRGRARGSKCFLLTSNAGVIEKEQINMYKEKMMNDSILRLQTWDEAVFREKILHIQTHEKFIRDSQEKPKPVPDKENKKLLCRKCKALACYTADVRVIEECHYTVLGDAFKECFVSRPHPKPKQFSSFEKRAKIFCARQNCSHDWGIHVKYKTFEIPVIKIESFVVEDIATGVQTLYSKWKDFHFEKIPFDPAEMSK
binding (GFP-XRCC4 (wild type)): binds

B2: GFP-RIG-I (protein, UniProt O95786 1-925)
chain: MTTEQRRSLQAFQDYIRKTLDPTYILSYMAPWFREEEVQYIQAEKNNKGPMEAATLFLKFLLELQEEGWFRGFLDALDHAGYSGLYEAIESWDFKKIEKLEEYRLLLKRLQPEFKTRIIPTDIISDLSECLINQECEEILQICSTKGMMAGAEKLVECLLRSDKENWPKTLKLALEKERNKFSELWIVEKGIKDVETEDLEDKMETSDIQIFYQEDPECQNLSENSCPPSEVSDTNLYSPFKPRNYQLELALPAMKGKNTIICAPTGCGKTFVSLLICEHHLKKFPQGQKGKVVFFANQIPVYEQQKSVFSKYFERHGYRVTGISGATAENVPVEQIVENNDIIILTPQILVNNLKKGTIPSLSIFTLMIFDECHNTSKQHPYNMIMFNYLDQKLGGSSGPLPQVIGLTASVGVGDAKNTDEALDYICKLCASLDASVIATVKHNLEELEQVVYKPQKFFRKVESRISDKFKYIIAQLMRDTESLAKRICKDLENLSQIQNREFGTQKYEQWIVTVQKACMVFQMPDKDEESRICKALFLYTSHLRKYNDALIISEHARMKDALDYLKDFFSNVRAAGFDEIEQDLTQRFEEKLQELESVSRDPSNENPKLEDLCFILQEEYHLNPETITILFVKTRALVDALKNWIEGNPKLSFLKPGILTGRGKTNQNTGMTLPAQKCILDAFKASGDHNILIATSVADEGIDIAQCNLVILYEYVGNVIKMIQTRGRGRARGSKCFLLTSNAGVIEKEQINMYKEKMMNDSILRLQTWDEAVFREKILHIQTHEKFIRDSQEKPKPVPDKENKKLLCRKCKALACYTADVRVIEECHYTVLGDAFKECFVSRPHPKPKQFSSFEKRAKIFCARQNCSHDWGIHVKYKTFEIPVIKIESFVVEDIATGVQTLYSKWKDFHFEKIPFDPAEMSK
binding (Flag-XRCC4): binds
